According to PubChem BioAssay AID686979 (National Center for Advancing Translational Sciences (NCATS), 2013):
Screen size: about 420,000 compounds; about 50,000 (12%) were called active. This list was built around the results that the source calls inconclusive (neither active nor inactive); the mix of calls is not that of the screen. Calls come from the whole dose curve; as a rule, active = well fitted inhibition curve with a large enough effect; inconclusive = small, poorly fitted or top-dose-only effect; inactive = flat fitted curve, though single readings scatter. Potencies of inconclusive entries are left out as doubtful fits.

test: qHTS for Inhibitors of human tyrosyl-DNA phosphodiesterase 1 (TDP1): qHTS in cells in presence of CPT; conditions: chicken DT40 Tdp1-/-;hTDP1 cells + 20 nM CPT, ATP luminescence, 48 h; activity change, negative = growth inhibition: at 46.2 µM (top of the series); note: nearly all actives have a fitted effect of over 55% in size
Procedure, shortened: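 Chicken DT40 Tdp1-/- cells stably complemented with human TDP1 were seeded at 400 cells/well in medium containing 20 nM camptothecin, exposed to pin-transferred compounds, and grown at 37 °C for at least 48 hr. Viability was read as ATP luminescence.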
% is set by controls: 0 for no effect and ±100 for the full control effect; potency is the fitted concentration of half-maximal effect; tags give direction and shape of the fitted curve.

Row | SMILES | Potency | activity change, negative = growth inhibition
1 | O=C(CSc1ncnc2ccccc12)c1ccco1 | inconclusive [inhibitor, single point] | –
2 | COC(=O)c1cccc(NS(=O)(=O)c2ccc(OC)c(C(=O)N3CCOCC3)c2)c1C | inactive | –
3 | O=C(NCCc1c[nH]c2ccccc12)Nc1ccccc1C(F)(F)F | active: 23.1 µM | –
4 | Cc1ccc(NC(=O)Cn2cc(C(F)(F)F)cc(Cl)c2=O)cc1S(=O)(=O)N1CCCCC1 | inconclusive [inhibitor, single point] | –
5 | Cc1ccccc1N1CCN(CC(=O)NCc2ccc(Cl)cc2)CC1 | inconclusive [inhibitor, single point] | –
6 | Cc1ccccc1/C=N/n1c(COc2ccccc2)n[nH]c1=S | inactive | –
7 | O=C(OCc1cn([C@H]2C[C@H](c3ccc(Cl)cc3)N(C(=O)C3CCCCC3)C[C@@H]2O)nn1)c1ccccc1 | inactive | –
8 | Cc1nn(Cc2ccccc2)c(C)c1NC(=O)c1cc(-c2ccc3c(c2)OCO3)on1 | inconclusive [inhibitor, partial curve, poor fit] | –
9 | COc1cccc2sc(N(CCCN(C)C)C(=O)c3ccc(S(=O)(=O)N4CCCc5ccccc54)cc3)nc12 | inconclusive [inhibitor, single point] | –
10 | CC1(Cc2cc(Cl)ccc2C(F)(F)F)C(=O)Nc2c(Cl)cccc21 (centres undefined) | inconclusive [inhibitor, single point] | –
11 | COc1ccc(NS(=O)(=O)c2cccc(C(=O)N(C)Cc3ccc(SC)cc3)c2)cc1 | inconclusive [inhibitor, single point] | –
12 | NS(=O)(=O)c1ccc(CCNS(=O)(=O)c2ccc(Cl)s2)cc1 | inconclusive [inhibitor, single point] | –
13 | COc1ccc(/C=C/c2nccc3c2[nH]c2ccccc23)cc1 | inconclusive [inhibitor, single point] | –
14 | O=C(Nc1ccc(-c2nc3ncccc3o2)cc1)c1ccc([N+](=O)[O-])o1 | active: 8.2 µM | –
15 | COCCNC(=O)C1(C)Cc2c(-c3cccc(NC(C)=O)c3)ccnc2O1 (centres undefined) | inconclusive [inhibitor, single point] | –
16 | COc1cc(Nc2ncnc3onc(-c4ccc(Cl)cc4)c23)cc(OC)c1 | inconclusive [inhibitor, single point] | –
17 | O=C(Oc1ccc2ccccc2c1)c1ccccc1 | inactive | –
18 | CCOC(=O)C1=C(Cc2ccc(Cl)cc2)C(=O)c2ccccc2C1=O | active: 4.61 µM | –
19 | CCc1cccc(NC(=O)COC(=O)c2c(C)nn(-c3ccccc3)c2C)c1 | inactive | –
20 | Brc1ccc2nc(-c3ccncc3)c(NC3CCCC3)n2c1 | inconclusive [inhibitor, single point] | –
21 | Oc1ccc(C[C@H]2CN([C@@H](Cc3ccccc3)CN3CCCC3CN3C(=S)NC[C@@H]3Cc3ccccc3)C(=S)N2CCc2ccccc2)cc1 (some centres undefined) | active: 20.6 µM | –
22 | Cc1ccc(NS(=O)(=O)c2ccc(NC(=O)c3cccs3)cc2)c(C)c1 | inconclusive [inhibitor, single point] | –
23 | COc1ccc(CN2CCC(n3nccc3NC(=O)C3CCCC3)CC2)c(OC)c1 | inconclusive [inhibitor, single point] | –

Row | SMILES | Potency | activity change, negative = growth inhibition
24 | CCN(CC)CCN(Cc1cc2ccc(C)cc2[nH]c1=O)C(=S)Nc1ccccc1C(=O)OC | inconclusive [inhibitor, single point] | –
25 | CC(C)(C)c1ccc(-n2ncc3c2CCCC3NC(=O)c2csnn2)cc1 (centres undefined) | inconclusive [inhibitor, single point] | –
26 | COc1ccc(-c2cnnc(N/N=C/c3c(C)nn(-c4ccccc4)c3Cl)n2)cc1 | active: 3.66 µM | –
27 | Cc1cc(NC(=O)CCC(=O)N(Cc2ccccc2)C2(C(=O)NC3CCCCC3)CCCC2)no1 | inconclusive [inhibitor, single point] | –
28 | CC(C)(C)NC(=O)NC(=O)COC(=O)COc1ccc2c(c1)CCC2 | inactive | –
29 | CC(C)CCCN1C(N(C)C)=NC[C@@H]1Cc1ccccc1 | active: 20.6 µM | –
30 | CCCOc1ccc(/C=C/C(=O)Nc2ccc([N+](=O)[O-])cc2)cc1 | active: 18.4 µM | –
31 | Cc1ccc2c(c1)N(Cc1ccccc1)C(=O)C(C)S2 (centres undefined) | inactive | –
32 | CCCCc1c(C)nn(-c2nnc3c4ccccc4n(C)c3n2)c1C | active: 23.1 µM | –
33 | O=C(Nc1cccc(S(=O)(=O)N2CCOCC2)c1)C1CCN(S(=O)(=O)c2ccccc2)CC1 | inconclusive [inhibitor, single point] | –
34 | CCOC(=O)N1CCN(C(=O)CN(c2cc(Cl)ccc2OC)S(=O)(=O)c2ccccc2)CC1 | inactive | –
35 | N#Cc1c(C(F)(F)F)cc(-c2cccs2)nc1SCC(=O)Nc1ccc(Cl)cc1 | active: 16.4 µM | –
36 | Cc1ccn2c(Nc3ccc4c(c3)OCO4)c(-c3ccco3)nc2c1 | active: 23.1 µM | –
37 | C/C(Nc1ccc2oc(=O)ccc2c1)=C1/C(=O)CC2[C@@H]1C2(C)C (some centres undefined) | – | inactive: 6.03% [at 9.04 µM]
38 | CCC(c1nnnn1CCOC)N(Cc1cc2c(C)cc(C)cc2[nH]c1=O)CC1CCCO1 (centres undefined) | inconclusive [inhibitor, single point] | –
39 | COc1ccccc1N=C(C)C1=C(O)CC(c2ccccc2)CC1=O (centres undefined) | active: 0.517 µM | –
40 | COc1ccc(N2CCN(C(CNS(=O)(=O)c3c(C)cc(C)cc3C)c3ccco3)CC2)cc1 (centres undefined) | inconclusive [inhibitor, single point] | –
41 | O=C(N/C=N/O)C(c1ccccc1)c1ncc(C(F)(F)F)cc1Cl (centres undefined) | inactive | –
42 | O=C(Cn1c(=O)n(Cc2ccc(F)cc2)c(=O)c2sc3ccccc3c21)NCc1ccccc1Cl | – | inconclusive: -19.1% [inhibitor]
43 | O=C(CCc1nc2ccccc2c(=O)[nH]1)Nc1cc(Cl)ccc1N1CCCCC1 | inconclusive [inhibitor, single point] | –
44 | Cc1ccccc1-c1ccc2ncnc(N(C)Cc3ccco3)c2c1 | inconclusive [inhibitor, single point] | –
45 | COc1ccc(C(=O)c2sc3nc(C)cc(-c4cccs4)c3c2N)cc1 | inconclusive [inhibitor, single point] | –
46 | CCN(CC)S(=O)(=O)c1ccc2c(c1)N(CC(=O)NCC1CCCO1)C(=O)CO2 (centres undefined) | inactive | –

Row | SMILES | Potency | activity change, negative = growth inhibition
47 | Cc1occc1C(=O)NNC(=O)c1ccc(Br)o1 | inactive | –
48 | O=NN(Cc1cccnc1)C(=O)NC1CCCCC1 | inconclusive [inhibitor, single point] | –
49 | COc1ccc(CCN(C)C(=O)C2CCCN(C3CCN(Cc4ccccc4)CC3)C2)cc1OC (centres undefined) | inconclusive [inhibitor, single point] | –
50 | CCCC(O)(c1ccccc1)C(CN1CCOCC1)c1ccccc1 (centres undefined) | active: 20.6 µM | –
51 | CC(C)C(N)c1csc(Nc2ccc(C(=O)c3ccccc3)cc2)n1 (centres undefined) | inconclusive [inhibitor, single point] | –
52 | CC(=O)Nc1ccc(NC(=O)c2ccc(S(=O)(=O)N(C)c3ccccc3)cc2)cc1 | inconclusive [inhibitor, partial curve] | –
53 | CCOC(=O)c1ccc(NC(=O)CN(c2ccc(C)cc2)S(=O)(=O)c2ccc(OC)cc2)cc1 | inconclusive [inhibitor, partial curve] | –
54 | CCC(=O)Nc1nnc(S(=O)(=O)N(C)Cc2ccc(Cl)cc2)s1 | inactive | –
55 | COc1cccc(COC(=O)Nc2ccccc2)c1OC | inconclusive [inhibitor, single point] | –
56 | CCOC(=O)COc1ccc(S(=O)(=O)c2ccc(OCC(=O)OCC)cc2)cc1 | inactive | –
57 | COc1ccc(OC)c(NC(=O)CSC2=Nc3ccccc3C3=NC(CCC(=O)NCc4ccco4)C(=O)N23)c1 (centres undefined) | inconclusive [inhibitor, single point] | –
58 | CCOC(=O)N1CCN(c2nc(-c3ccco3)cc(C(F)(F)F)n2)CC1 | – | inconclusive: -33% [inhibitor]
59 | O=C(C1CCN(Cc2ccc(Cl)cc2)CC1)N1CCN(C(c2ccccc2)c2ccccc2)CC1 | inconclusive [inhibitor, single point] | –
60 | O=S1(=O)c2ccccc2N(Cc2ccc(Cl)cc2F)c2ccccc21 | inconclusive [inhibitor, single point] | –
61 | CCn1c(SCC(=O)NCCc2ccccc2)nnc1-c1cccs1 | inactive | –
62 | CCC1(CC)Cc2ccccc2-c2nc(CCl)[nH]c(=O)c21 | inconclusive [inhibitor, single point] | –
63 | Cc1cc(C(=O)CSc2n[nH]c(N)n2)c(C)n1-c1ccc2c(c1)OCO2 | inconclusive [inhibitor, single point] | –
64 | CCC(Oc1ccccc1)C(=O)Nc1ccccc1C(=O)N1CCCCC1 (centres undefined) | inconclusive [inhibitor, single point] | –
65 | CCOc1ccccc1NC(=O)CSC1=Nc2ccccc2C2=NC(CC(=O)NC3CCCCC3)C(=O)N12 (centres undefined) | active: 20.6 µM | –
66 | CCCOc1ccc(C(=O)N2CCCc3ccccc32)cc1 | inconclusive [inhibitor, partial curve, poor fit] | –
67 | O=C(N/N=C/c1cc(Cl)ccc1O)C(=O)Nc1ccccc1OC(F)(F)C(F)F | active: 2.06 µM | –
68 | CC(=O)c1cccc(NC(=O)COC(=O)c2ccccc2OCc2cccc(Br)c2)c1 | inactive | –
69 | COc1ccc(CCNc2cc(C)nc3c(-c4ccccc4)c(C)nn23)cc1OC | inconclusive [inhibitor, single point] | –
